Some of the results follow. These are noisy estimates, calculated here from bound and input reads.
Target: T1, Pho4 (S. cerevisiae) (UniProt P07270)
T1 sequence: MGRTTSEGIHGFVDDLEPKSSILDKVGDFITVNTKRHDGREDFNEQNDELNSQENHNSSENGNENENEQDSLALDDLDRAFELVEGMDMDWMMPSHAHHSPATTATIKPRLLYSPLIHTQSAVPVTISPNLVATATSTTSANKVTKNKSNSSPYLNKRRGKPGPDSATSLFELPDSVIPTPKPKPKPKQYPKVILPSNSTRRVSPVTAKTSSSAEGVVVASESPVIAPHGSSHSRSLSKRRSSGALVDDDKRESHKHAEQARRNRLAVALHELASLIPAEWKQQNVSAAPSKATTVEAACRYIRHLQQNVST
Assay: relative binding free energy (BET-seq); higher = weaker binding
Settings: reference: library average

Sequence	relative binding free energy
TGGGCCACGTGCGGCG	-0.24 kcal/mol
CTGTCCACGTGGGGTT	-0.23 kcal/mol
AAGAGCACGTGAAGGT	0.08 kcal/mol
GGTTTCACGTGTGGGG	0.45 kcal/mol
GCTATCACGTGGTAGT	0.14 kcal/mol
GTGTGCACGTGTACGA	0.1 kcal/mol
CTGGTCACGTGGGGTT	-0.06 kcal/mol
ATTCTCACGTGGTGTG	0.09 kcal/mol
CGTTTCACGTGCGTAG	0.17 kcal/mol
GAGGACACGTGAATGG	0.28 kcal/mol
AAAATCACGTGTGTGT	0.16 kcal/mol
GACGGCACGTGGCTGT	0.04 kcal/mol
TTCGTCACGTGTTATG	0.21 kcal/mol
TTATGCACGTGAGATG	0.16 kcal/mol
GTAAACACGTGGGGGG	-0.04 kcal/mol
TTGTCCACGTGTTCTG	0.05 kcal/mol
TCTGACACGTGAGGTT	0.23 kcal/mol
GTAGGCACGTGTATTC	0.31 kcal/mol
TTGGGCACGTGTAAGA	0.05 kcal/mol
AGCGGCACGTGTGTTA	0 kcal/mol
GTGAGCACGTGCCGTG	-0.13 kcal/mol
TATGTCACGTGTCGAT	0.06 kcal/mol
TAAATCACGTGTGGTC	0.27 kcal/mol
CTTTTCACGTGTTTTT	0.27 kcal/mol
TATGGCACGTGGGATG	-0.13 kcal/mol
TTTCGCACGTGTGTTC	0.07 kcal/mol

Sequence	relative binding free energy
GCTTGCACGTGGTGTT	-0.01 kcal/mol
GGGGGCACGTGTAGCG	-0.05 kcal/mol
GAAAGCACGTGTAGGG	0 kcal/mol
AAGATCACGTGCGTGT	0.15 kcal/mol
TTTTACACGTGCATGA	0.05 kcal/mol
TCTACCACGTGGGGTT	-0.15 kcal/mol
TTGTACACGTGTAATT	0.12 kcal/mol
TGGATCACGTGGGCAG	0.03 kcal/mol
TACGTCACGTGGGGGG	0.01 kcal/mol
ATGTACACGTGGAATG	0.18 kcal/mol
CATAGCACGTGGGGGA	-0.28 kcal/mol
GAGGCCACGTGGTAGG	-0.09 kcal/mol
GTGGTCACGTGCGACG	0.15 kcal/mol
GTAGGCACGTGGAGGT	-0.11 kcal/mol
TTGGGCACGTGCGTAA	-0.15 kcal/mol
AAGTCCACGTGTTTTG	0.17 kcal/mol
TTTATCACGTGCATGT	0.14 kcal/mol
TTGGCCACGTGTGCGT	-0.1 kcal/mol
AGGCTCACGTGTTTAT	0.14 kcal/mol
TTTTTCACGTGTTGCG	0.23 kcal/mol
GGATACACGTGCTTTT	0.12 kcal/mol
TTCTGCACGTGGTCGT	-0.13 kcal/mol
ATCTTCACGTGTTGGT	0.19 kcal/mol
ATAGACACGTGGGTAT	-0.06 kcal/mol
GGTTTCACGTGTCTAG	0.29 kcal/mol
GTGCACACGTGAGGGA	0.21 kcal/mol

Sequence	relative binding free energy
GTTTGCACGTGTGTTA	0.11 kcal/mol
TTCTTCACGTGGGTTG	0.12 kcal/mol
AAAGGCACGTGTCGGG	-0.07 kcal/mol
GTTCTCACGTGTATGT	0.25 kcal/mol
CAGGGCACGTGTCGGT	-0.02 kcal/mol
GGAAGCACGTGTGAGT	0.1 kcal/mol
AGAATCACGTGTGCTT	0.25 kcal/mol
TTAATCACGTGGGGGA	-0.01 kcal/mol
TTCTTCACGTGTGTGG	0.31 kcal/mol
AGGTGCACGTGTACGT	0.05 kcal/mol
CGTATCACGTGGGTGC	0.02 kcal/mol
TATGACACGTGTCTTT	0.11 kcal/mol
ATTGACACGTGTAGGA	-0.02 kcal/mol
TGTACCACGTGGTTGT	-0.06 kcal/mol
AAATACACGTGTGGGT	0.09 kcal/mol
CGTGGCACGTGCTGGA	-0.19 kcal/mol
TTCGTCACGTGATAGT	-0.02 kcal/mol
TTTGTCACGTGGTCAG	-0.08 kcal/mol
AGAGTCACGTGGTTAT	0 kcal/mol
GTGCCCACGTGTGTTT	0.02 kcal/mol
GAAAGCACGTGGGAGT	-0.1 kcal/mol
CTTGGCACGTGTGCAT	-0.07 kcal/mol
GAGTGCACGTGAAGGC	0.28 kcal/mol
TTGATCACGTGCGAGG	0.23 kcal/mol
TGGTTCACGTGCAGCT	0.23 kcal/mol
AAGGTCACGTGGGGAT	0.1 kcal/mol

Sequence	relative binding free energy
TAGAGCACGTGTGTTA	-0.06 kcal/mol
TGCTTCACGTGTAGGA	0.24 kcal/mol
TATGTCACGTGGGATG	0.02 kcal/mol
AGGTTCACGTGTGGGA	0.3 kcal/mol
TATGACACGTGGTAGT	-0.16 kcal/mol
GGGGACACGTGTAGCA	0.13 kcal/mol
TGGCACACGTGTGGTT	0.01 kcal/mol
TTTTGCACGTGATGGG	0.11 kcal/mol
GCTTTCACGTGGTTGT	0.35 kcal/mol
TTTCACACGTGTTAAG	0.19 kcal/mol
AGGCTCACGTGGCGTG	0.15 kcal/mol
TGTTACACGTGTTCGA	0.1 kcal/mol
GTCGTCACGTGTGGTA	0.14 kcal/mol
GTTTGCACGTGTGGAG	0.14 kcal/mol
TGGTGCACGTGTCCGA	-0.03 kcal/mol
GTGGACACGTGACATT	0.32 kcal/mol
TCTTGCACGTGGATAT	0.02 kcal/mol
TGCAACACGTGAAGTG	0.35 kcal/mol
CTCGCCACGTGTGGGG	-0.06 kcal/mol
TGTGGCACGTGTACTG	-0.06 kcal/mol
TCGTGCACGTGATAGT	0.07 kcal/mol
TCTGTCACGTGCGTGT	0.03 kcal/mol
GGGGGCACGTGTCGAC	-0.01 kcal/mol
GTTTTCACGTGTAGAG	0.29 kcal/mol
GGAGTCACGTGGGCTG	-0.02 kcal/mol
TAAAGCACGTGTTTAT	-0.2 kcal/mol

Sequence	relative binding free energy
TAGCTCACGTGTAGGA	0.14 kcal/mol
CTTTTCACGTGTCATT	0.23 kcal/mol
GTTCCCACGTGTTGTT	0.02 kcal/mol
TTACTCACGTGTGTGG	0.15 kcal/mol
TTAGTCACGTGTACTT	0.12 kcal/mol
GGGGTCACGTGACGGA	0.39 kcal/mol
GAGTGCACGTGGTACG	0 kcal/mol
ACTGGCACGTGGTAGG	-0.21 kcal/mol
TTTTTCACGTGAAGCT	0.45 kcal/mol
TTGGCCACGTGGTATT	-0.06 kcal/mol
CTTAGCACGTGGTATT	-0.09 kcal/mol
TAGTCCACGTGTGTGG	0.1 kcal/mol
GTCTACACGTGGTGTG	0.02 kcal/mol
ACGTTCACGTGTAGGG	0.31 kcal/mol
TACCTCACGTGTGTGT	0.29 kcal/mol
GTGGGCACGTGGGAAT	-0.02 kcal/mol
TTGGTCACGTGCTAAG	-0.01 kcal/mol
TTCTACACGTGGCTGG	0.09 kcal/mol
CGGTACACGTGTTGAT	0.01 kcal/mol
TTTGACACGTGGTCTA	-0.1 kcal/mol
CGCTTCACGTGGGTTA	0.08 kcal/mol
CTTTACACGTGTTTTA	0.14 kcal/mol
CGTGTCACGTGGCGCG	-0.01 kcal/mol
GGATACACGTGGAAGT	0.24 kcal/mol
TCGTGCACGTGCGTGT	-0.05 kcal/mol
GGGGGCACGTGGTCTG	-0.16 kcal/mol

Sequence	relative binding free energy
TACTGCACGTGGAGTG	-0.14 kcal/mol
TGATGCACGTGCGATA	0.05 kcal/mol
TCAGTCACGTGGTTTA	0.02 kcal/mol
AGGGCCACGTGTGATT	-0.02 kcal/mol
TTTGACACGTGTAATC	0.24 kcal/mol
TCGGTCACGTGCGTTA	0.13 kcal/mol
AGTTGCACGTGGTACT	-0.19 kcal/mol
ATGGACACGTGTTACA	0.12 kcal/mol
TATGTCACGTGTAGTT	0.19 kcal/mol
AGTGACACGTGAAAGG	0.2 kcal/mol
GACGGCACGTGGTTAT	-0.08 kcal/mol
TTATACACGTGGTATG	-0.19 kcal/mol
CTAGGCACGTGCTGTA	-0.08 kcal/mol
TGGAGCACGTGAAAGG	0.18 kcal/mol
TTCAACACGTGGTTGG	-0.04 kcal/mol
CTAGGCACGTGTTATT	-0.03 kcal/mol
GAGGTCACGTGTTGTT	0.21 kcal/mol
GAATGCACGTGGGAAG	0 kcal/mol
GGGGACACGTGCGTTA	-0.08 kcal/mol
GTGAGCACGTGTGTCT	-0.11 kcal/mol
GGTACCACGTGGTGTA	-0.1 kcal/mol
TAAGGCACGTGATGTC	0.16 kcal/mol
GTTGTCACGTGGGGAC	0.06 kcal/mol
TAGAGCACGTGGCAGG	-0.28 kcal/mol
TAAGACACGTGTTTGT	-0.02 kcal/mol
CGTATCACGTGATGGA	0.27 kcal/mol

Sequence	relative binding free energy
ACGTGCACGTGAGATG	0.06 kcal/mol
CAATTCACGTGATTTG	0.36 kcal/mol
TGCGTCACGTGAGTTA	0.15 kcal/mol
TGGATCACGTGTGTGA	0.26 kcal/mol
GGATGCACGTGCGTCT	0.13 kcal/mol
ATAAACACGTGATAGT	0.16 kcal/mol
TTAGCCACGTGGGATG	-0.18 kcal/mol
GTGGCCACGTGGAGGG	-0.08 kcal/mol
GCCGGCACGTGTGGGT	-0.08 kcal/mol
TGTAACACGTGAGGGT	0.24 kcal/mol
AGCGGCACGTGTTAAT	0.03 kcal/mol
TTTGTCACGTGGTCCG	0.04 kcal/mol
TGTTTCACGTGGGGCA	0.17 kcal/mol
GGGTGCACGTGGTGCA	-0.11 kcal/mol
GGTCACACGTGGTCTT	0.13 kcal/mol
CGTTGCACGTGAAGGT	0.27 kcal/mol
GTATTCACGTGGAAAG	0.23 kcal/mol
GAGATCACGTGGCTGT	0.18 kcal/mol
GGGGGCACGTGCCATG	-0.18 kcal/mol
TGTGGCACGTGGGCAT	-0.24 kcal/mol
AATGGCACGTGGGGTA	-0.2 kcal/mol
AGGTACACGTGTGCTG	0.08 kcal/mol
GATTACACGTGTAATA	0.25 kcal/mol
CAGTGCACGTGGAGGG	0.03 kcal/mol
TTATCCACGTGTTGTG	-0.08 kcal/mol
TTGTTCACGTGTGGTC	0.31 kcal/mol

Sequence	relative binding free energy
ATTTACACGTGTGTGG	0.06 kcal/mol
TGTTACACGTGAGTAC	0.21 kcal/mol
ATGTACACGTGAGGTA	0.18 kcal/mol
TTGAGCACGTGAGGGC	0.29 kcal/mol
GTTTACACGTGTGCTT	0.22 kcal/mol
GGCTACACGTGGGGCT	0.02 kcal/mol
GGAGACACGTGTTGCG	0.02 kcal/mol
TTTTTCACGTGCTACT	0.26 kcal/mol
TAATTCACGTGATTTG	0.27 kcal/mol
GTGTGCACGTGTGCCT	-0.04 kcal/mol
GAGATCACGTGGGTAG	0.05 kcal/mol
TGTTACACGTGATAGG	0.26 kcal/mol
TAGTTCACGTGGTGTG	0.21 kcal/mol
GATTTCACGTGGGTGC	0.19 kcal/mol
ATGGTCACGTGACGTT	0.29 kcal/mol
GCTTGCACGTGTATTG	-0.01 kcal/mol
TGCCTCACGTGGGTAG	0.16 kcal/mol
GAGGGCACGTGTGTAG	-0.13 kcal/mol
GTTTTCACGTGGCAGT	0.22 kcal/mol
CGGGGCACGTGGGAGC	-0.32 kcal/mol
GGGATCACGTGTTGAG	0.21 kcal/mol
TGATGCACGTGCTGTG	0 kcal/mol
TTTGTCACGTGATAAT	0.21 kcal/mol
AGAGTCACGTGCTGTT	-0.03 kcal/mol
AGGCGCACGTGATTGT	0.08 kcal/mol
GAGTACACGTGGGATA	-0.03 kcal/mol

Sequence	relative binding free energy
TGTATCACGTGGTATA	0.14 kcal/mol
CATGGCACGTGCTTGT	-0.06 kcal/mol
AGTCTCACGTGGGGAT	-0.03 kcal/mol
CTTGTCACGTGAGGCG	0.19 kcal/mol
GGGATCACGTGTTGAA	0.22 kcal/mol
TAGTGCACGTGAATTA	0.38 kcal/mol
CTCGTCACGTGAGGGT	0.23 kcal/mol
TGTTACACGTGTTGAA	0 kcal/mol
AGCGTCACGTGGATGA	0.23 kcal/mol
TGGGCCACGTGTATAG	0.03 kcal/mol
GATGCCACGTGGGGGG	-0.19 kcal/mol
TGTAGCACGTGCAGGA	-0.12 kcal/mol
TCGGTCACGTGCGGCG	0.23 kcal/mol
TGTGACACGTGTGTGT	0.02 kcal/mol
GTGAGCACGTGTCGGA	-0.13 kcal/mol
TGATACACGTGCTTAG	0.11 kcal/mol
CGGGACACGTGGGTGT	-0.17 kcal/mol
GTGGCCACGTGAGGTG	0.15 kcal/mol
AGATGCACGTGGTAGT	-0.09 kcal/mol
AAGGACACGTGAATGT	0.35 kcal/mol
TGGGGCACGTGCACTT	-0.19 kcal/mol
TGATTCACGTGGCTTA	0.31 kcal/mol

Reference: the BET-seq Pho4 binding data (Le et al. 2018)
